Laboratory results published in PubChem BioAssay AID1745853 (National Center for Advancing Translational Sciences (NCATS), 2022).
Several values for one entry are separate records, joined by “and”; a condition that tells them apart may be missing. Identical values can stand only once. Some of the results follow. Further columns of the screen follow, without active or inactive calls.

Columns and labels:
Test in all cases: Primary Screen for Target Class Profiling of Small Molecule Inhibitors of Methyltransferases
[1] = biological target: Glycine N-methyltransferase (Homo sapiens) (UniProt Q14749); details: purified enzyme, MTase-Glo SAH luminescence; measured here: GNMT inhibition; at 40 µM; stronger effect = lower value
In short: (§1)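 Each enzyme was reacted with SAM and its substrate, with compounds tested once at 40 uM; SAH formed was read by MTase-Glo luminescence.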

[2] = biological target: Guanidinoacetate N-methyltransferase (Homo sapiens) (UniProt Q14353); details: purified enzyme, MTase-Glo SAH luminescence; measured here: GAMT inhibition; at 40 µM; stronger effect = lower value
In short: as §1

[3] = biological target: Histamine N-methyltransferase (Homo sapiens) (UniProt P50135); details: purified enzyme, MTase-Glo SAH luminescence; measured here: HNMT inhibition; at 40 µM; stronger effect = lower value
In short: as §1

[4] = biological target: Nicotinamide N-methyltransferase (Homo sapiens) (UniProt P40261); details: purified enzyme, MTase-Glo SAH luminescence; measured here: NNMT inhibition; at 40 µM; stronger effect = lower value
In short: as §1

[5] = biological target: Phenylethanolamine N-methyltransferase (Homo sapiens) (UniProt P11086); details: purified enzyme, MTase-Glo SAH luminescence; measured here: PNMT inhibition; at 40 µM; stronger effect = lower value
In short: as §1
% is scaled to controls: 0 for no effect and ±100 for the full control effect.

SMILES	activity change, negative = inhibition [1]	activity change, negative = inhibition [2]	activity change, negative = inhibition [3]	activity change, negative = inhibition [4]	activity change, negative = inhibition [5]
COC[C@H]1C[C@@H](NCc2cn(C)c3ccccc23)[C@H](O)[C@@H]1O	-4.17%	-9.89%	-3.05%	-14.8%	-14.9%
O=C(Nc1cc(F)ccc1F)N1Cc2ccccc2-n2cccc2C1c1cc(F)cc(F)c1 (stereo not given)	11.5%	0.079%	6.95%	3.86%	8.07%
C[C@@H]1O[C@@H](OC2CCC3(C=O)C(CCC4C3CCC3(C)C(C5=CC(=O)OC5)C(O)CC43O)C2)[C@H](O)[C@H](O)[C@H]1O[C@@H]1O[C@H](CO)[C@@H](O)[C@H](O)[C@H]1O (stereo not given in full)	0%	8.06%	6.89%	-4.89%	5.32%
COc1ccc(NC(=O)N2Cc3ccccc3-n3cccc3C2c2cccc(C)c2)cc1OC (stereo not given)	6.48%	0%	-0.172%	-1.98%	4.1%
Cc1ncc2c(n1)C[C@@H]1CC[C@H]2N1C(=O)C1(c2ccccc2)CC1	-1.56%	-4.1%	-0.366%	-6.84%	1.2%
CCCCCCCCCCCCCC(=O)O[C@@H]1[C@@H](C)[C@@]2(O)[C@@H](C=C(CO)C[C@@]3(O)C(=O)C(C)=C[C@@H]23)C2C(C)(C)[C@@]21OC(C)=O (stereo not given in full)	-6.39%	0.463%	-1.8%	-12.4%	1.88%
COc1ccccc1-c1cc([C@H]2CN3CC[C@H]2C[C@@H]3CNS(=O)(=O)c2ccccc2)n(C)n1	-7.19%	-1.29%	-4.48%	-9.83%	-1.95%
Cc1ccc([C@@H]2CN(C(=O)c3ccco3)[C@@H]3C4CCN(CC4)[C@@H]32)cc1	-6.51%	-8.14%	-2.9%	-15.9%	-1.38%
Cc1ccc(NC(=O)N2Cc3ccccc3-n3cccc3C2c2ccc(Cl)cc2)cc1C (stereo not given)	0%	0%	1.38%	2.73%	4.58%
CN(C)c1ccc(C2c3cccn3-c3ccccc3CN2C(=O)Nc2ccc(F)cc2F)cc1 (stereo not given)	4.17%	0%	-10%	-4.58%	1.44%
CCOc1ccccc1NC(=O)N1Cc2ccccc2-n2cccc2C1c1ccccc1Cl (stereo not given)	9.11%	0%	4.22%	0.217%	5.64%
CSc1ccc(C2c3cccn3-c3ccccc3CN2C(=O)NCc2ccc(C)cc2)cc1 (stereo not given)	-0.618%	0%	-0.121%	7.07%	7.16%
COc1ccc(C2c3cccn3-c3ccccc3CN2C(=O)NCCc2ccccc2)cc1OC (stereo not given)	10.2%	0%	1.42%	6.49%	7.38%
CCC1c2cccn2-c2ccccc2CN1C(=O)Nc1cc(Cl)ccc1C(=O)OC (stereo not given)	-3.61%	0%	3.28%	3%	4.97%
CC1c2cccn2-c2ccccc2CN1C(=O)Nc1ccc(Br)cc1F (stereo not given)	7.31%	3.28%	-2.08%	-5.91%	1.08%
COc1ccc(C2c3cccn3-c3ccccc3CN2C(=O)Nc2ccccc2F)cc1 (stereo not given)	4.15%	0%	-2.86%	-6.31%	1.47%
O=C(Nc1cc(F)ccc1F)N1Cc2ccccc2-n2cccc2C1c1cccs1 (stereo not given)	6.68%	0%	3.28%	0.974%	6.67%
COC(=O)c1ccccc1NC(=O)N1Cc2ccccc2-n2cccc2C1c1ccc(SC)cc1 (stereo not given)	1.28%	5.1%	8.23%	7.49%	7.72%
Cc1c(N2C(=O)[C@@H]3[C@H](O)CCN3C2=O)ccc(C#N)c1Cl	4.42%	8.48%	10.5%	-6.4%	3.82%
Cc1ccc(NC(=O)N2Cc3ccccc3-n3cccc3C2c2cccs2)c(C)c1 (stereo not given)	3.61%	0%	-0.634%	-1.29%	2.23%

SMILES	activity change, negative = inhibition [1]	activity change, negative = inhibition [2]	activity change, negative = inhibition [3]	activity change, negative = inhibition [4]	activity change, negative = inhibition [5]
S=C(NC1CCCCC1)N1CCC(c2cnc[nH]2)CC1	1.11% and 0.866%	6.38% and 11.3%	9.66% and 21.1%	-7.75% and -4.37%	-1.31% and 0.99%
COc1cc(NC(=O)N2Cc3ccccc3-n3cccc3C2C)cc(OC)c1 (stereo not given)	2.53%	1.17%	0.641%	-0.906%	5.29%
COc1ccc(C2c3cccn3-c3ccccc3CN2C(=O)NCc2ccco2)cc1OC (stereo not given)	3.58%	4.53%	-5.4%	-6.21%	-0.066%
CC[C@H]1C[C@H]2[C@@H]3CCC4=CC(=O)CC[C@@H]4[C@H]3CC[C@]2(C)[C@H]1O	-7.84%	4.31%	8.34%	-9.47%	1.08%
COCCCNC(=O)N1Cc2ccccc2-n2cccc2C1c1cccc(C)c1 (stereo not given)	5.91%	2.98%	1.01%	-2.73%	0.98%
NC(=O)[C@@H](CC1CC1)[C@@H](CCC(F)(F)F)C(=O)N[C@H]1N=C(c2ccccc2)c2cccc(F)c2NC1=O	-1.58%	-3.03%	5.48%	-14.5%	-0.781%
O=C(Nc1ccc(Cl)cc1)N1Cc2ccccc2-n2cccc2C1c1ccc(F)cc1 (stereo not given)	-1.35%	5.09%	-0.391%	-4.56%	1.01%
COc1cccc(CNC(=O)N2Cc3ccccc3-n3cccc3C2c2ccccc2Cl)c1 (stereo not given)	2.91%	1.08%	-0.979%	-1.23%	0.227%
C[N+]1(CC2CC2)CC[C@]23c4c5ccc(O)c4O[C@H]2C(=O)CC[C@@]3(O)[C@H]1C5 (stereo not given in full)	–	6.15%	–	-6.45%	0.754%
COC1CC(O[C@H]2CC[C@]3(C)C4CC[C@]5(C)[C@@H](C6=CC(=O)OC6)[C@@H](OC(C)=O)C[C@]5(O)C4CC[C@@H]3C2)OC(C)C1O (stereo not given in full)	-0.818%	3.4%	-2.25%	-5.58%	-1.79%
CC(=O)N(C)c1cccc(-c2ccnc3c(C(=O)c4cccs4)cnn23)c1	-2.25%	2.64%	7.72%	-19.2%	0.81%
COc1ccc(NC(=O)N2Cc3ccccc3-n3cccc3C2c2ccccc2C)cc1OC (stereo not given)	7.11%	4.19%	5.41%	4.68%	3.22%
COc1ccc(C2c3cccn3-c3ccccc3CN2C(=O)Nc2ccc(F)c(Cl)c2)cc1 (stereo not given)	7.58%	1.34%	2.57%	2.92%	5.91%
N#Cc1cccc(NC(=O)NC[C@H]2C[C@@H]3CCN2C[C@@H]3CN2CCN(c3ccccn3)CC2)c1	-22.8%	0.844%	-20.7%	-0.45%	-0.157%
NC(N)=NOCC[C@H](N)C(=O)O	-12.2%	-0.331%	-2.29%	-6.73%	4.96%
N[C@@H](Cn1oc(=O)[nH]c1=O)C(=O)O	-11.2%	1.32%	-2.23%	-4.53%	4.17%
C/C=C(\C)C(=O)O[C@H]1[C@H](OC(C)=O)[C@]2(CO)[C@H](O)[C@H](O)[C@]3(C)C(=CCC4[C@@]5(C)CC[C@H](O[C@@H]6O[C@H](C(=O)O)[C@@H](O)[C@H](O[C@@H]7OC[C@H](O)[C@H](O[C@@H]8OC[C@H](O)[C@H](O)[C@H]8O)[C@H]7O)[C@H]6O[C@@H]6O[C@H](CO)[C@@H](O)[C@H](O)[C@H]6O)C(C)(C)C5CC[C@]43C)[C@@H]2CC1(C)C (stereo not given in full)	2.04%	4.61%	6.05%	-6.09%	7.86%
CC(C)(C)NC[C@H](O)c1ccc(O)cc1Cl	-7.72%	5.97%	4.39%	-9.26%	0.157%
COc1cccc(NC(=O)N2Cc3ccccc3-n3cccc3C2c2ccc(C)cc2)c1 (stereo not given)	3.75%	3.33%	-3.84%	-4.88%	-0.148%
CN1C[C@@H]2CN(c3ccc(-c4ccccc4)nn3)C[C@@H]2C1	-8.49%	0.944%	-3.54%	-22.9%	-5.63%

SMILES	activity change, negative = inhibition [1]	activity change, negative = inhibition [2]	activity change, negative = inhibition [3]	activity change, negative = inhibition [4]	activity change, negative = inhibition [5]
COc1ccc(C2c3cccn3-c3ccccc3CN2C(=O)Nc2cccc(Cl)c2)cc1 (stereo not given)	9.94%	3.73%	3.41%	1.28%	7.22%
Cc1ccc(NC(=O)N2Cc3ccccc3-n3cccc3C2C)cc1 (stereo not given)	10.6%	1.58%	9.25%	5.25%	7.68%
COc1ccc(NC(=O)N2Cc3ccccc3-n3cccc3C2C)c(OC)c1 (stereo not given)	11.4%	2.55%	6.3%	4.29%	8.34%
CNC(=O)c1cc(C#N)cc(C)c1NC(=O)c1cc(Br)nn1-c1ncccc1Cl	-2.5%	5.24%	1.04%	-19.5%	-7.49%
CCOC(=O)c1ccc(NC(=O)N2Cc3ccccc3-n3cccc3C2c2cccc(Cl)c2)cc1 (stereo not given)	8.23%	0%	-1.86%	4.75%	-3.22%
O=C(Nc1ccc(Cl)cc1)N1Cc2ccccc2-n2cccc2C1c1cccs1 (stereo not given)	11.5%	0%	5.19%	8.16%	9.79%
CC1c2cccn2-c2ccccc2CN1C(=O)Nc1ccccc1C(F)(F)F (stereo not given)	5.66%	1.68%	0.617%	1.52%	4.31%
CCOc1ccc(C2c3cccn3-c3ccccc3CN2C(=O)Nc2ccc(C)cc2)cc1 (stereo not given)	-2.61%	7.2%	8.21%	6.58%	3.6%
COCC(C(=O)OC1CC2CCC(C1)N2C)c1ccccc1 (stereo not given)	4.98%	9.66%	8.72%	-3.92%	4.95%
Cc1cccc(C2c3cccn3-c3ccccc3CN2C(=O)Nc2ccc(C)c(C)c2)c1 (stereo not given)	3.99%	0.353%	-6.12%	-5.29%	-0.011%
CC(C)=C1CC[C@]23CO[C@H](C2)[C@@](O)(C(=O)O)CCC13 (stereo not given in full)	-0.508%	-4.83%	4.51%	-15.9%	0.727%
CCc1ccc(C2c3cccn3-c3ccccc3CN2C(=O)NCc2ccc(C)cc2)cc1 (stereo not given)	6.63%	0.862%	0.292%	-2.09%	1%
COc1ccc2c(c1)C13CCCCC1C(C2)N(C)CC3 (stereo not given)	7.43%	14.1%	-33.9%	-7.25%	3.14%
CCOC(=O)c1ccc(NC(=O)N2Cc3ccccc3-n3cccc3C2c2ccccc2Cl)cc1 (stereo not given)	5.8%	4.61%	-2%	-0.266%	3.01%
CC1CCCC(=O)CCC/C=C/c2cc(O)cc(O)c2C(=O)O1 (stereo not given)	-73.3%	–	-75.7%	–	–
Cc1ccc(C2c3cccn3-c3ccccc3CN2C(=O)Nc2cccc(Cl)c2)cc1 (stereo not given)	2.58%	2%	-8.35%	-5.67%	-3.51%
CCC1c2cccn2-c2ccccc2CN1C(=O)Nc1ccc(C)c(F)c1 (stereo not given)	-0.567%	4.58%	-0.928%	1.25%	3.49%
COc1cc2c(cc1Oc1ccccc1)NC(=O)C21CCN(CC2CC2)CC1	-4.6%	-5.75%	-30.6%	-10.7%	-3.04%
